Source: the supplement of paper PMC11876631
± gives the standard deviation of the averaged measurements. Laboratory Escherichia coli strains with one amino-acid change in an essential protein, pooled on minimal glucose agar with carbenicillin or gentamicin at twice the control MIC (plus kanamycin and chloramphenicol for the plasmids), 48 h. Fold change of barcode share against drug-free plates; higher = less susceptible. Active = above 20 in both replicates (the paper's putatively resistant). '<' = one read or none on drug, '>' = one read or none on a drug-free plate. Shares are relative, so most strains fall below 1 when a few take over. Listed are strains with at least 15 reads on both drug-free plates, and hits; most hits rest on fewer reference reads. Replicate rank correlation about 0.5. Edits are read from barcodes.

Molecular target: Escherichia coli (laboratory strain)
Test: barcode share on antibiotic plates over drug-free plates; higher = less susceptible
Description: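 A pool of E. coli strains, each edited to carry one amino-acid change in an essential protein, was grown for 48 h on minimal glucose agar with or without antibiotic; strain barcodes were sequenced; mean of two replicates.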

[1] = antibiotic: carbenicillin, 2× MIC (3.1 µg/mL)
[2] = antibiotic: gentamicin, 2× MIC (MIC 0.45 µg/mL)

Protein | fold change of barcode share [1] | fold change of barcode share [2]
metE L239D (protein) MTILNHTLGFPRVGLRRELKKAQESYWAGNSTREELLAVGRELRARHWDQQKQAGIDLLPVGDFAWYDHVLTTSLLLGNVPARHQNKDGSVDIDTLFRIGRGRAPTGEPAAAAEMTKWFNTNYHYMVPEFVKGQQFKLTWTQLLDEVDEALALGHKVKPVLLGPVTWLWLGKVKGEQFDRLSLLNDILPVYQQVLAELAKRGIEWVQIDEPALVLELPQAWLDAYKPAYDALQGQVKLDLTTYFEGVTPNLDTITALPVQGLHVDLVHGKDDVAELHKRLPSDWLLSAGLINGRNVWRADLTEKYAQIKDIVGKRDLWVASSCSLLHSPIDLSVETRLDAEVKSWFAFALQKCHELALLRDALNSGDTAALAEWSAPIQARRHSTRVHNPAVEKRLAAITAQDSQRANVYEVRAEAQRARFKLPAWPTTTIGSFPQTTEIRTLRLDFKKGNLDANNYRTGIAEHIKQAIVEQERLGLDVLVHGEAERNDMVEYFGEHLDGFVFTQNGWVQSYGSRCVKPPIVIGDISRPAPITVEWAKYAQSLTDKPVKGMLTGPVTILCWSFPREDVSRETIAKQIALALRDEVADLEAAGIGIIQIDEPALREGLPLRRSDWDAYLQWGVEAFRINAAVAKDDTQIHTHMCYCEFNDIMDSIAALDADVITIETSRSDMELLESFEEFDYPNEIGPGVYDIHSPNVPSVEWIEALLKKAAKRIPAERLWVNPDCGLKTRGWPETRAALANMVQAAQNLRRG | 0.679 ± 0.17 | 
metE L326A (protein) MTILNHTLGFPRVGLRRELKKAQESYWAGNSTREELLAVGRELRARHWDQQKQAGIDLLPVGDFAWYDHVLTTSLLLGNVPARHQNKDGSVDIDTLFRIGRGRAPTGEPAAAAEMTKWFNTNYHYMVPEFVKGQQFKLTWTQLLDEVDEALALGHKVKPVLLGPVTWLWLGKVKGEQFDRLSLLNDILPVYQQVLAELAKRGIEWVQIDEPALVLELPQAWLDAYKPAYDALQGQVKLLLTTYFEGVTPNLDTITALPVQGLHVDLVHGKDDVAELHKRLPSDWLLSAGLINGRNVWRADLTEKYAQIKDIVGKRDLWVASSCSLAHSPIDLSVETRLDAEVKSWFAFALQKCHELALLRDALNSGDTAALAEWSAPIQARRHSTRVHNPAVEKRLAAITAQDSQRANVYEVRAEAQRARFKLPAWPTTTIGSFPQTTEIRTLRLDFKKGNLDANNYRTGIAEHIKQAIVEQERLGLDVLVHGEAERNDMVEYFGEHLDGFVFTQNGWVQSYGSRCVKPPIVIGDISRPAPITVEWAKYAQSLTDKPVKGMLTGPVTILCWSFPREDVSRETIAKQIALALRDEVADLEAAGIGIIQIDEPALREGLPLRRSDWDAYLQWGVEAFRINAAVAKDDTQIHTHMCYCEFNDIMDSIAALDADVITIETSRSDMELLESFEEFDYPNEIGPGVYDIHSPNVPSVEWIEALLKKAAKRIPAERLWVNPDCGLKTRGWPETRAALANMVQAAQNLRRG | 0.544 ± 0.06 | 0.205 ± 0.28
metE L326W (protein) MTILNHTLGFPRVGLRRELKKAQESYWAGNSTREELLAVGRELRARHWDQQKQAGIDLLPVGDFAWYDHVLTTSLLLGNVPARHQNKDGSVDIDTLFRIGRGRAPTGEPAAAAEMTKWFNTNYHYMVPEFVKGQQFKLTWTQLLDEVDEALALGHKVKPVLLGPVTWLWLGKVKGEQFDRLSLLNDILPVYQQVLAELAKRGIEWVQIDEPALVLELPQAWLDAYKPAYDALQGQVKLLLTTYFEGVTPNLDTITALPVQGLHVDLVHGKDDVAELHKRLPSDWLLSAGLINGRNVWRADLTEKYAQIKDIVGKRDLWVASSCSLWHSPIDLSVETRLDAEVKSWFAFALQKCHELALLRDALNSGDTAALAEWSAPIQARRHSTRVHNPAVEKRLAAITAQDSQRANVYEVRAEAQRARFKLPAWPTTTIGSFPQTTEIRTLRLDFKKGNLDANNYRTGIAEHIKQAIVEQERLGLDVLVHGEAERNDMVEYFGEHLDGFVFTQNGWVQSYGSRCVKPPIVIGDISRPAPITVEWAKYAQSLTDKPVKGMLTGPVTILCWSFPREDVSRETIAKQIALALRDEVADLEAAGIGIIQIDEPALREGLPLRRSDWDAYLQWGVEAFRINAAVAKDDTQIHTHMCYCEFNDIMDSIAALDADVITIETSRSDMELLESFEEFDYPNEIGPGVYDIHSPNVPSVEWIEALLKKAAKRIPAERLWVNPDCGLKTRGWPETRAALANMVQAAQNLRRG | 0.45 ± 0.14 | 0.0187 ± 0.0074
metE L326Q (protein) MTILNHTLGFPRVGLRRELKKAQESYWAGNSTREELLAVGRELRARHWDQQKQAGIDLLPVGDFAWYDHVLTTSLLLGNVPARHQNKDGSVDIDTLFRIGRGRAPTGEPAAAAEMTKWFNTNYHYMVPEFVKGQQFKLTWTQLLDEVDEALALGHKVKPVLLGPVTWLWLGKVKGEQFDRLSLLNDILPVYQQVLAELAKRGIEWVQIDEPALVLELPQAWLDAYKPAYDALQGQVKLLLTTYFEGVTPNLDTITALPVQGLHVDLVHGKDDVAELHKRLPSDWLLSAGLINGRNVWRADLTEKYAQIKDIVGKRDLWVASSCSLQHSPIDLSVETRLDAEVKSWFAFALQKCHELALLRDALNSGDTAALAEWSAPIQARRHSTRVHNPAVEKRLAAITAQDSQRANVYEVRAEAQRARFKLPAWPTTTIGSFPQTTEIRTLRLDFKKGNLDANNYRTGIAEHIKQAIVEQERLGLDVLVHGEAERNDMVEYFGEHLDGFVFTQNGWVQSYGSRCVKPPIVIGDISRPAPITVEWAKYAQSLTDKPVKGMLTGPVTILCWSFPREDVSRETIAKQIALALRDEVADLEAAGIGIIQIDEPALREGLPLRRSDWDAYLQWGVEAFRINAAVAKDDTQIHTHMCYCEFNDIMDSIAALDADVITIETSRSDMELLESFEEFDYPNEIGPGVYDIHSPNVPSVEWIEALLKKAAKRIPAERLWVNPDCGLKTRGWPETRAALANMVQAAQNLRRG | 0.446 ± 0.12 | < 0.00695
metE L239P (protein) MTILNHTLGFPRVGLRRELKKAQESYWAGNSTREELLAVGRELRARHWDQQKQAGIDLLPVGDFAWYDHVLTTSLLLGNVPARHQNKDGSVDIDTLFRIGRGRAPTGEPAAAAEMTKWFNTNYHYMVPEFVKGQQFKLTWTQLLDEVDEALALGHKVKPVLLGPVTWLWLGKVKGEQFDRLSLLNDILPVYQQVLAELAKRGIEWVQIDEPALVLELPQAWLDAYKPAYDALQGQVKLPLTTYFEGVTPNLDTITALPVQGLHVDLVHGKDDVAELHKRLPSDWLLSAGLINGRNVWRADLTEKYAQIKDIVGKRDLWVASSCSLLHSPIDLSVETRLDAEVKSWFAFALQKCHELALLRDALNSGDTAALAEWSAPIQARRHSTRVHNPAVEKRLAAITAQDSQRANVYEVRAEAQRARFKLPAWPTTTIGSFPQTTEIRTLRLDFKKGNLDANNYRTGIAEHIKQAIVEQERLGLDVLVHGEAERNDMVEYFGEHLDGFVFTQNGWVQSYGSRCVKPPIVIGDISRPAPITVEWAKYAQSLTDKPVKGMLTGPVTILCWSFPREDVSRETIAKQIALALRDEVADLEAAGIGIIQIDEPALREGLPLRRSDWDAYLQWGVEAFRINAAVAKDDTQIHTHMCYCEFNDIMDSIAALDADVITIETSRSDMELLESFEEFDYPNEIGPGVYDIHSPNVPSVEWIEALLKKAAKRIPAERLWVNPDCGLKTRGWPETRAALANMVQAAQNLRRG | 0.232 ± 0.11 | 0.0198 ± 0.013
metE F348W (protein) MTILNHTLGFPRVGLRRELKKAQESYWAGNSTREELLAVGRELRARHWDQQKQAGIDLLPVGDFAWYDHVLTTSLLLGNVPARHQNKDGSVDIDTLFRIGRGRAPTGEPAAAAEMTKWFNTNYHYMVPEFVKGQQFKLTWTQLLDEVDEALALGHKVKPVLLGPVTWLWLGKVKGEQFDRLSLLNDILPVYQQVLAELAKRGIEWVQIDEPALVLELPQAWLDAYKPAYDALQGQVKLLLTTYFEGVTPNLDTITALPVQGLHVDLVHGKDDVAELHKRLPSDWLLSAGLINGRNVWRADLTEKYAQIKDIVGKRDLWVASSCSLLHSPIDLSVETRLDAEVKSWFAWALQKCHELALLRDALNSGDTAALAEWSAPIQARRHSTRVHNPAVEKRLAAITAQDSQRANVYEVRAEAQRARFKLPAWPTTTIGSFPQTTEIRTLRLDFKKGNLDANNYRTGIAEHIKQAIVEQERLGLDVLVHGEAERNDMVEYFGEHLDGFVFTQNGWVQSYGSRCVKPPIVIGDISRPAPITVEWAKYAQSLTDKPVKGMLTGPVTILCWSFPREDVSRETIAKQIALALRDEVADLEAAGIGIIQIDEPALREGLPLRRSDWDAYLQWGVEAFRINAAVAKDDTQIHTHMCYCEFNDIMDSIAALDADVITIETSRSDMELLESFEEFDYPNEIGPGVYDIHSPNVPSVEWIEALLKKAAKRIPAERLWVNPDCGLKTRGWPETRAALANMVQAAQNLRRG | 0.308 ± 0.21 | < 0.0131
metE L326D (protein) MTILNHTLGFPRVGLRRELKKAQESYWAGNSTREELLAVGRELRARHWDQQKQAGIDLLPVGDFAWYDHVLTTSLLLGNVPARHQNKDGSVDIDTLFRIGRGRAPTGEPAAAAEMTKWFNTNYHYMVPEFVKGQQFKLTWTQLLDEVDEALALGHKVKPVLLGPVTWLWLGKVKGEQFDRLSLLNDILPVYQQVLAELAKRGIEWVQIDEPALVLELPQAWLDAYKPAYDALQGQVKLLLTTYFEGVTPNLDTITALPVQGLHVDLVHGKDDVAELHKRLPSDWLLSAGLINGRNVWRADLTEKYAQIKDIVGKRDLWVASSCSLDHSPIDLSVETRLDAEVKSWFAFALQKCHELALLRDALNSGDTAALAEWSAPIQARRHSTRVHNPAVEKRLAAITAQDSQRANVYEVRAEAQRARFKLPAWPTTTIGSFPQTTEIRTLRLDFKKGNLDANNYRTGIAEHIKQAIVEQERLGLDVLVHGEAERNDMVEYFGEHLDGFVFTQNGWVQSYGSRCVKPPIVIGDISRPAPITVEWAKYAQSLTDKPVKGMLTGPVTILCWSFPREDVSRETIAKQIALALRDEVADLEAAGIGIIQIDEPALREGLPLRRSDWDAYLQWGVEAFRINAAVAKDDTQIHTHMCYCEFNDIMDSIAALDADVITIETSRSDMELLESFEEFDYPNEIGPGVYDIHSPNVPSVEWIEALLKKAAKRIPAERLWVNPDCGLKTRGWPETRAALANMVQAAQNLRRG | 0.52 ± 0.095 | 0.0232 ± 0.0053
